Data on 94 sequences can be found in the supplement of paper PMC3334620.

Whole data set: some 33,000 sequences, median “E-score (-0.5 to 0.5)” near -0.012, cut for the highest 2% near 0.27. Some of the results follow.

This assay has as its target T1, Vhr1 (UniProt P40522).
T1 sequence: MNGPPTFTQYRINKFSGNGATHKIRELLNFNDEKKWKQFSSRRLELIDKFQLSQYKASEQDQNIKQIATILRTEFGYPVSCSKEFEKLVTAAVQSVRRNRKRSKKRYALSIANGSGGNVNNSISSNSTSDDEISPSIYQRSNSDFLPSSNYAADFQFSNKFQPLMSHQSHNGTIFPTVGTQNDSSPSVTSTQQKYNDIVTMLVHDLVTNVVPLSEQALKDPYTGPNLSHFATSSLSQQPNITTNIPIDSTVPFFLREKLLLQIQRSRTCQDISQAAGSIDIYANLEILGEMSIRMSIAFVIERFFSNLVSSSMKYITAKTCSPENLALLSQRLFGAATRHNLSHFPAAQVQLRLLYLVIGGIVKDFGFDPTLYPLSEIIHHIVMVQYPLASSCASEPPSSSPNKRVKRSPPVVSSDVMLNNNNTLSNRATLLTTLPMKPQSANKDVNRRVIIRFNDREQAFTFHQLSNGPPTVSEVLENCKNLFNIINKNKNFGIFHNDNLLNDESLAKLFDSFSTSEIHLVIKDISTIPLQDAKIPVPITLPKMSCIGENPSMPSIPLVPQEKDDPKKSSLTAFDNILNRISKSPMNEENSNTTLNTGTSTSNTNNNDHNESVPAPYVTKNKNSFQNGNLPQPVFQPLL
In words: PBM E-score (8-mer binding enrichment) (E-score (-0.5 to 0.5)); higher = stronger / more preferred TF binding; most listed sequences are background and not binding sites. Particulars: protein concentration: 200 nM; construct: GST-full length. In outline: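 Detection of bound protein used fluorescent anti-GST, with scans normalised by masliner. The proteins were GST-tagged yeast transcription factors applied at about 100-200 nM to universal all-10-mer Agilent arrays made double-stranded by primer extension. Each ungapped eight-base word, pooled with its reverse complement, was scored with an E-score from the Universal PBM Analysis Suite.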
CCTAGCGC: the “PBM E-score” value was -0.166. With CAACCGTC, the “PBM E-score” value is -0.0573. ACTTTCAC: the “PBM E-score” value is -0.0162.

Take ATTATACC: the “PBM E-score” value worked out at 0.112.

For TAGCCAAA, the “PBM E-score” value was -0.0112.

ATATTGCA: the “PBM E-score” value was 0.123.

TGACCCAA: the “PBM E-score” value is 0.214. CTCTAGTC: the “PBM E-score” value was -0.104. Take AATAGTAG: the “PBM E-score” value turned out to be 0.0438.

Turning to AAAGTACG, the “PBM E-score” value stood at 0.105. As for GTCATACA, the “PBM E-score” value is 0.19. For GTTTGATA, the “PBM E-score” value came out at 0.0594.

Take CGCAATTA: the “PBM E-score” value is -0.0437. The value for ACAAAGCT was -0.0545; that for GGCCCTCA was -0.186.

AGCCCTGG: the “PBM E-score” value is -0.114. With GCCACTAC, the “PBM E-score” value worked out at 0.0783. In the case of ACACATTA, the “PBM E-score” value was 0.189. The value for ACGCATAA was -0.0919; that for AAACTGGC was 0.0109; that for ATCAGAAC was 0.0119. For the sequence AGGGGGTA, the “PBM E-score” value is -0.139. For AGCTGGCA, the “PBM E-score” value was -0.00516. Turning to CCTTGCGA, the “PBM E-score” value was -0.0209. Consider GGCACGTA, for which the “PBM E-score” value was -0.0165. With AGTCGGAG, the “PBM E-score” value is 0.233. To GCAACGGC belongs -0.0884.

As for ATACGGGG, the “PBM E-score” value was -0.0292. As for CTTTCGAC, the “PBM E-score” value is -0.165. On to CTCATGAC, for which the “PBM E-score” value came out at 0.326. To AGACGGCG belongs 0.0504; to CCAAGCAG, -0.0787.

AGGCGTGG: the “PBM E-score” value was -0.3. Consider AACCAGTC, for which the “PBM E-score” value was 0.0251. In the case of AATCTGTG, the “PBM E-score” value worked out at 0.0413.

Regarding AACTAGCG, the “PBM E-score” value came out at 0.0205.

With ACACGTCA, the “PBM E-score” value turned out to be 0.175. The value for ATTCCTCA was 0.0353; that for CCGAAACA was 0.104; that for CTTGACTA was 0.131. As for AGCTGGAA, the “PBM E-score” value was -0.133. Consider AGTCTTTA, for which the “PBM E-score” value is -0.341. On to AGTATCAT, for which the “PBM E-score” value worked out at 0.182. For the sequence CTCGCGAC, the “PBM E-score” value amounted to 0.242. As for CCAAGACA, the “PBM E-score” value was -0.0173. As to TACGGGCA, the “PBM E-score” value turned out to be 0.0459. In the case of ATAGATAG, the “PBM E-score” value stood at 0.11.

Turning to ACGCACAT, the “PBM E-score” value was 0.0403. As to GGATCGTA, the “PBM E-score” value amounted to 0.0854.

As for GTCGGCTA, the “PBM E-score” value was -0.0411. To CTATCAGC belongs 0.0442; to CCATTGAA, -0.0169. Turning to ATTACGTG, the “PBM E-score” value was determined as 0.204. On to CGCTTACG, for which the “PBM E-score” value is -0.254.

In the case of GGATCTAA, the “PBM E-score” value is -0.203. The value for ACACTCCA was 0.0776; that for CTAACCCC was -0.231; that for GAGGGATA was -0.189.

For the sequence CGAAGCCA, the “PBM E-score” value is -0.0788. To AGGTACAA belongs -0.163; to ATTCCGAC, 0.156; to AACCACAA, 0.225.

GCGCCTTA: the “PBM E-score” value was determined as 0.0352. With GTAACTAC, the “PBM E-score” value was 0.0678. Turning to AAATCTCT, the “PBM E-score” value is -0.126. CGACAGAC: the “PBM E-score” value was -0.00935. Turning to CGGAGGCA, the “PBM E-score” value is -0.0597. On to ACGTTCCA, for which the “PBM E-score” value was found to be 0.00922. In the case of ACGCAATC, the “PBM E-score” value came to 0.0446. For the sequence CCTGGACG, the “PBM E-score” value was -0.0281.

Turning to AACTAGGT, the “PBM E-score” value was 0.189. To AGCAATTA belongs 0.0218; to AACTGAGG, -0.0666. For the sequence GGTGAACA, the “PBM E-score” value is -0.192. The value for AATGACTG was 0.271. In the case of CCACCCTC, the “PBM E-score” value was 0.246. In the case of CCCAGGAA, the “PBM E-score” value was -0.116. For the sequence ATGCCGAA, the “PBM E-score” value came to 0.0852. On to GAAGACGA, for which the “PBM E-score” value was found to be 0.0115. Take ACGTTGCA: the “PBM E-score” value is -0.0853. To ATTCGAAT belongs -0.074; to CTTGGCTA, 0.0867.

On to AACCTGTA, for which the “PBM E-score” value was -0.044. For the sequence GACCCCGC, the “PBM E-score” value was 0.0882. The value for ACTATTTG was 0.0136; that for AGTGGACG was 0.116. In the case of CGCTATTA, the “PBM E-score” value is -0.0992.

Take AGGTATCG: the “PBM E-score” value was determined as 0.126.

In the case of CTGGGGTC, the “PBM E-score” value stood at 0.0862. Take CAAAGGAA: the “PBM E-score” value was -0.128. In the case of AAGTCTAT, the “PBM E-score” value is -0.221. In the case of CATTTGGG, the “PBM E-score” value is -0.0111. Consider CTTAGGCA, for which the “PBM E-score” value was -0.375. With ACCGTCAC, the “PBM E-score” value was -0.227.
